Measured values from patent EP1366764A1, “Method of screening for calcium receptor-active molecules” (The Brigham & Women's Hospital, Inc., priority 1993, dated 1994).

Test system: bovine parathyroid cells
Assay: Measurement of cytosolic Ca2+ ([Ca2+]i, fura-2): mobilization of intracellular Ca2+ in bovine parathyroid cells
Format: cell-based
Settings: for effect on basal [Ca^2+]i or increases in [Ca^2+]i evoked by extracellular Ca^2+: tested at 1 µM; for EC50: read-out: EC50 for the mobilization of intracellular Ca^2+, bovine parathyroid cells, fura-2, 0.5 mM extracellular Ca2+, "inactive" = no change in [Ca2+]i at 1 mM or 1-5 mM (footnote); for potentiation of the mobilization of intracellular Ca^2+ elicited by extracellular divalent cations / change in [Ca^2+]i: 100 µM; for change in [Ca^2+]i: low extracellular Ca2+ (0.5 mM); for effect on [Ca^2+]i (cytosolic Ca^2+ transients): tested at 500 µM

In the case of CC1=C(C(=O)OC(C)C)C(c2cccc3nonc23)C([N+](=O)[O-])=C(C)N1 (single isomer, unassigned; (-)) [(-) 202-791], the “effect on basal [Ca^2+]i or increases in [Ca^2+]i evoked by extracellular Ca^2+” value is reported as “None”.

NCCCCCCCCCCCCN [1,12-diaminododecane (DADD), 1,12-diaminododecane] gave an EC50 (Bos taurus) of 3000 µM.

In the case of NC(=O)C[C@H](NC(=O)Cc1ccc(O)cc1O)C(=O)NCCCCCNCCCNCCCNC(=O)[C@@H](N)CCCN=C(N)N [Argiotoxin-636], the “increases in [Ca^2+]i” value (400 µM) is reported as “did not elicit increases in [Ca^2+]i” and the “effect on [Ca^2+]i” value (tested at similar concentrations (100 to 300 µM)) is reported as “without effect”.

With NC(=O)C[C@H](NC(=O)Cc1c[nH]c2cccc(O)c12)C(=O)NCCCCCNCCCNCCCNC(=O)[C@@H](N)CCCN=C(N)N [Argiotoxin-659] the EC50 was 300 µM.

In the case of COC(=O)C1=C(C)NC(C)=C([N+](=O)[O-])C1c1ccccc1C(F)(F)F (centres unmarked) [BAY K 8644], the “effect on basal [Ca^2+]i or increases in [Ca^2+]i evoked by extracellular Ca^2+” value is reported as “None”.

With COc1ccc(CCN(C)CCCC(C#N)(c2cc(OC)c(OC)c(OC)c2)C(C)C)cc1OC [D-600] the “potentiation of the mobilization of intracellular Ca^2+ elicited by extracellular divalent cations” value (“potentiation” below) was “potentiated the mobilization of intracellular Ca^2+” and the “change in [Ca^2+]i” value was “evoked no change in [Ca^2+]i”.

In the case of CCCC(=O)N[C@@H](Cc1ccc(O)cc1)C(=O)NCCCCNCCCNCCCN [Philanthotoxin-433], the “effect on [Ca^2+]i (cytosolic Ca^2+ transients)” value is reported as “without effect”.

With CCN(CC)CCCCCCCCOC(=O)c1cc(OC)c(OC)c(OC)c1 [TMB-8] the “potentiation” value was “potentiated the mobilization of intracellular Ca^2+; also recorded: potentiated transient increases in [Ca^2+]i” and the “change in [Ca^2+]i” value was “evoked no change in [Ca^2+]i”.

For NC[C@H]1O[C@H](O[C@H]2[C@H](O)[C@@H](O[C@H]3O[C@H](CO)[C@@H](O)[C@H](N)[C@H]3O)[C@H](N)C[C@@H]2N)[C@H](N)[C@@H](O)[C@@H]1O [bekanamycin], the EC50 (Bos taurus) was 200 µM.

For NCCCCCN [cadaverine], the “mobilization of intracellular Ca^2+” value (tested at 2mM) was “inactive”.

In the case of COc1ccc([C@@H]2Sc3ccccc3N(CCN(C)C)C(=O)[C@@H]2OC(C)=O)cc1 [diltiazem], the “potentiation” value is reported as “effective”.

For C1CNCCNCCNCCNCCNCCN1 [hexacyclen, 1,4,7,10,13,16-hexaaza-cyclooctadecane], the “potency relative to NPS 383” value was 7 fold, the EC50 (Bos taurus) was 20 µM and the “potency relative to pentaethylenehexamine” value (cyclic analog versus straight chain) was 25 fold.

CCC[C@@H]1C[C@@H](C(=O)N[C@@H]([C@H]2O[C@H](SC)[C@H](O)[C@@H](O)[C@H]2O)[C@@H](C)O)N(C)C1 [lincomycin] was tested, and the “effect on [Ca^2+]i (cytosolic Ca^2+ transients)” value was “without effect”.

Work on NCCCCNCCCN [spermidine] yielded an EC50 (Bos taurus) of 2000 µM.

[H]/N=C(/N)N[C@H]1[C@H](O)[C@@H](O)[C@H](O[C@@H]2O[C@@H](C)[C@](O)(C=O)[C@H]2O[C@@H]2O[C@@H](CO)[C@H](O)[C@@H](O)[C@@H]2NC)[C@@H](N/C(N)=N\[H])[C@@H]1O [streptomycin] showed an EC50 (Bos taurus) of 600 µM.

Entries after “also recorded” stand apart in the source; their conditions may differ. Read-outs that look alike come from different tables or passages of the source.
